# Source: the supplement of paper PMC11417369
# This is one part of the list.
# Test system: PfHDP1 homeodomain (GST-tagged)
# Test: gcPBM binding intensity (ln(normalized median fluorescence intensity)); higher = stronger DNA binding
# Outline: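 Each value is the highest Masliner-normalised natural-log median intensity across replicate spots of either orientation of a probe. The probes were primer-extended double-stranded 36-bp intergenic genomic sequences on an Agilent 4 × 180k array, alongside negative controls, exposed for 1 h to GST-tagged P. falciparum DNA-binding domains expressed in E. coli. Bound protein was picked up with Alexa488 anti-GST antibody and scanned at 488 nm.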
row,Sequence,gcPBM binding intensity (ln)
1,GATAATTTATTTTTTCGTACACAAAATATAATATAT [XGTACX_site1470],6.45
2,TATATATCAAGACACACACACATATATTTATTTATA [CACACA_site7733],6.99
3,TCCTTTCAACCATATATAATGACATGTACTCAAAAA [GTGCAC_negctrl_site417],6.77
4,CATCCATATAAAATATGTACATATATATATATATAT [XGTACX_site5859],9.39
5,TATTTTAGTAAAGGTGGTACTTTTAAGTTCATGTAT [XGTACX_site1854],6.23
6,ATTATAAACCATAATTAACACACAAAATAAGTTACA [CACACA_site9057],6.46
7,AAAAAAAAAGAAAAATGTACATACATAAATATATAT [XGTACX_site5664],6.47
8,AAAAAAAAAAAAAAAAGTACACAAATAGATTTATAT [XGTACX_site3727],6.48
9,ATTCTATTTTTTATAAAACCATGTCATCAACATAGG [CACACA_negctrl_site237],6.7
10,GGTATACATAATACTTGTACTAGGCAACAATAAGAT [XGTACX_site1437],6.89
11,AAGAAGAAAAACCATTGTACGAACTAACATATATAA [XGTACX_site3226],6.58
12,TGTTAAAAGAAAAAAAGTACAAAAAATTATACATTT [XGTACX_site467],5.93
13,AATATGAATATCTATACACACACATATATATACACA [CACACA_site8459],6.8
14,ATTTGTGACCACACAAATAAATAAATAAAAAAAAAA [TGCATGCA_negctrl_site328],6.14
15,ATATATTTATATTTGTGTACATATTTATTATATTTA [XGTACX_site404],6.45
16,TAATAATAGAAACACACACACATTTTTAATAATACA [CACACA_site1216],6.83
17,TATATATATATATTCACACATATAGTATTGTATTTA [CACACA_site5147],9.1
18,TATATTTTATATTAGTGTACAAATTTCATTTTTCAT [XGTACX_site2204],6.18
19,AATATATATAAAAAAGTGCATTAGGATAACCATATA [GTGCAC_site9590],8.25
20,AATCATTTGTTATAAGTCTAAAATTATTAGAATATT [XGTACX_negctrl_site151],6.26
21,TTCAATTTTTTAAAGCGTACATATAAAAGTTATATG [XGTACX_site731],6.25
22,ATTATTACATATAATGCATGTGCATATATTTTTATA [TGCATGCA_site701],11

row,Sequence,gcPBM binding intensity (ln)
1,AAATTTGGATGACTCAATAAATTATAATATATATAT [CACACA_negctrl_site298],7.89
2,ATATTCTTTATATGCATACACACCTAATATAGGGAC [CACACA_site1533],7.2
3,TTTTATCATCACATTTGTCAAAAAAAAAAAAAAAAA [CACACA_negctrl_site1296],6.11
4,TTATAATAAAAAAATTCCTAAGTCCGTATATATTAT [CACACA_negctrl_site1698],6.01
5,TTTTATTTTTATAACAGTACATAAGTAATTGTTCAA [XGTACX_site7574],6.14
6,GATTTTATAATTTCTACACACATATAAGAATATTCA [CACACA_site2802],6.55
7,TTATGTTCATTATATGCACACATATATATAAATGTA [CACACA_site8947],9.74
8,ATATCAAACTAGAATGTGCGCATGCATTCAAGTTTT,6.54
9,TTTTTTTAAATATATAAGATAAATTTATAAATAAAT [XGTACX_negctrl_site282],5.97
10,AAAAAAAATTTCTCAAGTACACAATTTTTTTTTGTT [XGTACX_site5874],6.26
11,TTTTTTTTTTTTATATGTACTAATAATCTTTTTTTT [XGTACX_site3552],6.4
12,GCTGAAAGGATAAAGGTGCATATTTTTTAAAAAATT [GTGCAC_site9487],8.76
13,AATATTTTATATGTAGTGCATTACTATAGGATTTAT [GTGCAC_site9424],9.25
14,ACAAAATAAACGGCTGCACACAAGAAGCACAATATT [CACACA_site3690],7.45
15,TGTGTCAAATAATTAATGTCATATATATTTTGTATA [CACACA_negctrl_site1479],6.11
16,TGCTTATATCTTATAATATTTATACATCATAATAAG [CACACA_negctrl_site629],6.41
17,GATAGAAAAAAATAATGTACACACACATATATGTTT [XGTACX_site392],6.48
18,GGCAGCAATTTAGTTACACACATATATAGGTATACA [CACACA_site76],6.77
19,TATTTTTATTTTAATTGTACTTTTTAATTAATAATA [XGTACX_site8302],6.35
20,TACACATACCCATACACACGCATAGAAACATACGAA [CACACA_site5212],6.76
21,TTTCTTTTTTCTGTTATTATTATAAAACGATATTTA [TGCATGCA_negctrl_site167],6.49
22,GCATATAAAATAAATCGTACATGTAAAACATAATTA [XGTACX_site7077],6.41

row,Sequence,gcPBM binding intensity (ln)
1,AGATATATTTTTTAAATTTAAAAATTATAAAATTTA [CACACA_negctrl_site533],6.13
2,AAATATATCTTCTTTGCACACTTAAAGGGAAGTGAT [CACACA_site343],9.28
3,TATAATATAATATTTTGTACATATGATAAAAAAAAA [XGTACX_site6858],6.38
4,ACACATATAAATAAAACATGCATATGTAAATATATA [TGCATGCA_site403],6.6
5,TCAAAATGTTACAAATTATGTTGGCTAAAATTTTAA [TGCATGCA_negctrl_site188],6.24
6,TTGAACCTGATAAATACACACAATATAGATTTTTTT [CACACA_site7091],6.48
7,AATTATACTCACGTTACACACACACTATATATATAT [CACACA_site9375],8.85
8,ATACATATTCTTATTTGTACTTATTATAAAATGGTC [XGTACX_site6584],6.21
9,TAACTGATATATAAAACACACATCATAAAAATATAA [CACACA_site6499],6.44
10,ACAATAATTTCCATCACACATATATTTATATATTAC [CACACA_site6003],6.52
11,TTGCATCTACATTTATGTACATATCTTATGATAAAT [XGTACX_site2146],6.54
12,TATATATGTATATATTTTATAAGTATGCAAGAAAAT [TGCATGCA_negctrl_site486],7.15
13,ATATTGGAATAAATTTGTACATATATATATTATTCA [XGTACX_site916],6.51
14,TTTTGTTATATACAATAGATCAGAAGAAATGAAGTT [CACACA_negctrl_site1579],6.72
15,TTATAATATGTATACACACACATATATAAATATATA [CACACA_site2326],6.69
16,CAATGTTAACATATTACACACATATGTATATAGAAT [CACACA_site2732],7.08
17,CTTACGTATTAAGTGTGTCCGTAGTGTTCATAGTTC [XGTACX_site8913],6.43
18,AAAATTTATAAAAGCACACAAAATAAAAAAAAATGA [CACACA_site1491],6.9
19,TGTACGAGTCGTAGAGTGCAGTCTGGAGAAGAGTAC [GTGCAC_site9684],6.86
20,AAAGTAAATTTAAGCACACACAACGAATTTTTATAC [CACACA_site1959],6.84
21,TTTCAATAATAAAAAACACACACAAAAAAAAATAAT [CACACA_site8905],7.27
22,AAAAATATAAACACCAGTACACAAACCTATAATGGA [XGTACX_site3846],6.79

row,Sequence,gcPBM binding intensity (ln)
1,ACATAATGCTAGACACGTACGTACATCCGTGAGGTT [XGTACX_site4156],6.52
2,GTAAAAGAACGGCATGCATGAAAAATATTACACATG [TGCATGCA_site143],6.84
3,TGAACTCAACAAAGGGTGCATAACAAAAATAGACGT,8.77
4,TTATTATTATATTCTACATGCAGTTTGTGTAGAACA [TGCATGCA_site455],6.43
5,AATATATGGTTTCATGATATTAAATACAATTTAATG [CACACA_negctrl_site1503],5.88
6,CTATAATTATGATGAAGTACATATGAGTTCAAAAAA [XGTACX_site3070],6.57
7,ATATATATATGTATATGTACTTATATTATTGTTTGT [XGTACX_site1466],8.71
8,ATTATAATTACTCTAGTGCATTATAAATATGAATAA,9.79
9,CTCAAATTTATTAGTGGTACATAACCAAGGAAATAA [XGTACX_site225],6.46
10,AAGTTATTTATATATACACACAAATATAAATAATAT [CACACA_site1228],6.59
11,AGGACAAGGGTTACATGTACATATATATATATATAT [XGTACX_site901],9.22
12,ATAAATAAAAATAGAACACACATATGTTTTTTTTTT [CACACA_site3556],6.22
13,TTAATTGAAACTTATTGTACTTTTTTTTTTTTTTTT [XGTACX_site8162],6.48
14,CCTAGAAAAAAGAACTGTACATATATATATAAATAT [XGTACX_site1680],6.65
15,ATATGCAGAGACTGTTTGCACTTTTTTATTTTATGT [GTGCAC_site9695],7.95
16,TGAAAAAATATAATTTGTACATATCAGGCAAAAATG [XGTACX_site1824],6.31
17,ATATATATTATATATTGTACATATTATATTCATTAT [XGTACX_site1766],6.77
18,TTTATTAATTTATAGTGTACATATTAATAATATATT [XGTACX_site7949],6.36
19,ATAAATTATATTATTGAACACACGTTTGGTAATGTT [CACACA_site2662],6.33
20,AAAAAAATAATAAAAAGTACAAAATGTAGAAAATGT [XGTACX_site5018],7
21,AAAAAATAAAACATATATAATATATAATATATATAT [GTGCAC_negctrl_site447],8.17
22,AATGTGAAAACGTGTACACATTTTATTTAATTTATC [CACACA_site5966],6.62
